From PubChem BioAssay AID1159614 (National Center for Advancing Translational Sciences (NCATS), 2016) come the findings set out here.

Hit rate of the full screen: of about 45,000 compounds, about 65 (0.1%) were called active. Calls follow the shape of the dose curve; as a rule, active = well fitted activation curve with a large enough effect; inconclusive = small, poorly fitted or top-dose-only effect; inactive = no such curve, though single readings can be large or run the other way. This is one part of the list.
Potency is read from the fitted curve at half-maximal effect.

Chain of UniProt P54803 (P54803 whole entry, looked up): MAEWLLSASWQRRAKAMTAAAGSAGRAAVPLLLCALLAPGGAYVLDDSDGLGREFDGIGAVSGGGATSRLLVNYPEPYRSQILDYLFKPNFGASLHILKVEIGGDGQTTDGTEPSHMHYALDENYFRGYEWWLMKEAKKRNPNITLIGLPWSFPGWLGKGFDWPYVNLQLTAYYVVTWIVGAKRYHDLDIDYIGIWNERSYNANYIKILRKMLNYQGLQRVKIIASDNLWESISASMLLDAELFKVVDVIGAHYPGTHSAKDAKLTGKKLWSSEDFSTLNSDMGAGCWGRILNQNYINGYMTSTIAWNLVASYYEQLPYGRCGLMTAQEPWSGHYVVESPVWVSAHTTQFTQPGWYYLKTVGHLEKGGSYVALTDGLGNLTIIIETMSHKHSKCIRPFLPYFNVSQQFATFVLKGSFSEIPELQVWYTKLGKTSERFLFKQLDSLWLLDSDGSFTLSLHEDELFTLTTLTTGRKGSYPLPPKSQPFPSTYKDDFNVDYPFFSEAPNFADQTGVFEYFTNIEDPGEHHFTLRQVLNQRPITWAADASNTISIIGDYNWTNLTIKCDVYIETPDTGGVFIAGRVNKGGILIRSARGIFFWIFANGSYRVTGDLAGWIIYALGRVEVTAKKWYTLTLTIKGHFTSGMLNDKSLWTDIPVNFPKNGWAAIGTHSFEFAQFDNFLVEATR

This assay deals with Galactocerebrosidase (Homo sapiens) (UniProt P54803). Kind of assay: A Novel Cell-Based Assay to Identify Small Molecules for B -Galactocerebrosidase. Also: nearly all actives have a fitted effect of over 65% in size. As to activation: 0% is about no effect. Conditions: 145M-Twi-hGALC-G270D cells, HMU-beta-Gal fluorescence, 48 h; series mostly up to 57.5 µM; activation: at the top concentration. In outline:
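qHTS, 1536-well; 145M-Twi-hGALC-G270D cells (WT line also made) in DMEM/F12 + 10% FBS; compound incubation on live cells; HMU-β-gal 0.1 mM final, pH 5.2, NaTC; carbonate stop; fluorescence increase = enhanced residual activity.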
As to `Cc1cccc(C(=O)Nc2ccc(OCc3cc(=O)n4c5c(sc4n3)CCCC5)cc2)c1`, the “activation” value was inactive: -3.97%.

`Cc1ccc(NC(=O)Cn2cc(S(=O)(=O)c3ccccc3)c(=O)c3cc4c(cc32)OCO4)cc1`: the “activation” value is inactive: -19.2%.

`COc1ccccc1Nc1nn2c(=O)c3ccc(C(=O)NC(C)c4ccccc4)cc3nc2s1` (stereo not drawn): the “activation” value is inactive: -12.8%.

Regarding `Cc1cccc(-c2c3c(=O)n(C)c(=O)n(C)c3c3cnc4ccccc4n23)c1`, the “activation” value was inactive: -14.6%.

As for `Cc1c(NC(=O)Nc2ccc(C#N)cc2)c(=O)n(-c2ccccc2)n1C`, the “activation” value is inactive: -21%.

For `COc1ccc(C2c3[nH]c4ccc(OC)cc4c3CCN2C(=O)Nc2ccccc2)cc1` (stereo not drawn), the “activation” value is inactive: -15.3%.

As for `Cc1cc(C)c(NC(=O)Cn2nnc(-c3nc(-c4ccccc4)no3)c2N)c(C)c1`, the “activation” value was inactive: -9.64%.

Consider `CCCOC(=O)c1ccc(O)cc1`, for which the “activation” value was inactive: -18% [at 114 µM].

With `Cc1cc(C)c2c(n1)SCCN2C(=O)Nc1ccc(C(=O)Nc2ccc(C(C)C)cc2)cc1`, the “activation” value is inactive: -5.6%.

With `CCN(CCN(C)C)C(=O)C1CCN(S(=O)(=O)c2c(C)noc2/C=C/c2ccccc2F)CC1`, the “activation” value is inactive: 2.39%.

As to `Cc1ccc(-c2cc(C(F)(F)F)nn2-c2ccc(S(N)(=O)=O)cc2)cc1`, the “activation” value was inactive: -13.4%.

Take `CSc1ncc(C(=O)Nc2cc(Cl)ccc2C)c(-c2ccccc2)n1`: the “activation” value is inactive: -3.56%.

With `COc1ccccc1NC(=O)C1CCN(c2cnccn2)CC1`, the “activation” value was inactive: -8.03%.

On to `CC(=O)N1CCCc2cc(S(=O)(=O)N3CCN(c4cccc(C(F)(F)F)c4)CC3)ccc21`, for which the “activation” value was inactive: -16%.

In the case of `Cc1ccc(C)c(NC(=O)C(c2ccccc2)N2Cc3ccccc3C2=O)c1` (stereo not drawn), the “activation” value is inactive: -14.5%.

`COC(=O)c1ccccc1NC(=O)Cn1c(=O)n(CCCC(=O)NCc2ccccc2OC)c(=O)c2ccccc21`: the “activation” value is inactive: -1.16%.

In the case of `O=C(CCC1N=C2c3ccccc3N=C(SCc3ccc(F)cc3)N2C1=O)NC1CCCCC1` (stereo not drawn), the “activation” value was inactive: -8.17%.

In the case of `COc1cc2cc(CNc3ccccc3)c(=O)n(CC(=O)Nc3cc(C)cc(C)c3)c2cc1OC`, the Potency was active: 39.8 µM.

Take `Cc1cc(C)cc(-n2ccn(CC(=O)Nc3ccccc3F)c(=O)c2=O)c1`: the “activation” value was inactive: -8.44%.

Regarding `CC(=O)c1ccc(NC(=O)c2nc3nc(C)cc(C(F)F)n3n2)cc1`, the “activation” value was inactive: -9.45%.

Take `CCOc1ccc(-n2nc(CO)c(C(=O)NCc3cccc(OC)c3)n2)cc1`: the “activation” value is inactive: -11.7%.

In the case of `CCCCc1nc2ccccc2n1CC(=O)N(COCC)c1c(C)cccc1CC`, the “activation” value was inactive: -8.01%.

On to `Cc1cc(C)cc(NC(=O)C2CCN(S(=O)(=O)c3ccc4c(c3)oc(=O)n4C)CC2)c1`, for which the “activation” value was inactive: -10%.

Regarding `CCOC(=O)c1ccc(NC(=O)CSc2nc3c([nH]c4ccccc43)c(=O)n2C)cc1`, the “activation” value was inactive: -5.95%.

As for `Cc1cn2c(=O)cc(COc3ccccc3NC(=O)c3ccc(Cl)cc3)nc2s1`, the “activation” value was inactive: 20.3%.

Regarding `Cc1ccc(NC(=O)C2CCC(CNS(=O)(=O)c3ccc4c(c3)CCCC(=O)N4)CC2)c(C)c1` (stereo not drawn), the “activation” value is inactive: -9.38%.

As for `Cc1ccccc1-c1noc(-c2cc(-c3ccc(F)cc3)n[nH]2)n1`, the “activation” value was inactive: -11.4%.

In the case of `COc1ccc(/C=C/C(=O)Nc2ccc3nc(N4CCCCC4)cc(C)c3c2)cc1OC`, the “activation” value was inactive: -9.26%.

Regarding `CC(C)c1ccc(Nc2c(-c3ccco3)nc3ccccn23)cc1`, the “activation” value is inactive: -8.58%.

In the case of `COc1cc(NC(=O)c2ccc(-n3cnc4cccnc43)cc2)cc(OC)c1`, the “activation” value is inactive: -23.8%.

In the case of `Cc1nn(C)c2c1c(C(F)(F)F)cc(=O)n2CC(=O)N1CCN(c2ccccc2F)CC1`, the “activation” value was inactive: -5.29%.

On to `CC(=O)N1CCc2c(sc3c2c(=O)n(-c2cccc(Cl)c2)c(=O)n3Cc2ccc(F)cc2Cl)C1`, for which the “activation” value is inactive: -13.6%.

On to `O=C(Cn1c(=O)n(-c2ccccc2)c(=O)c2c3c(sc21)CCCC3)Nc1ccccc1`, for which the “activation” value is inactive: 3.35%.

Regarding `CCOC(=O)c1c(NC(=O)/C=C/c2ccc(OCC)cc2)sc2c1CCCC2`, the “activation” value is inactive: -11.4%.

As to `O=C(NCc1ccc2c(c1)CCN2C(=O)c1ccc(Cl)cc1)c1ccco1`, the “activation” value is inactive: -12.6%.

Turning to `Cc1cc(-c2ccc(C)c(S(=O)(=O)N3c4ccccc4CC3C)c2)on1` (stereo not drawn), the “activation” value was inactive: -20.2%.

Regarding `CCOc1ccc(-c2cc(C(=O)NCCc3ccccc3)c3c(-c4ccc(C)cc4)[nH]nc3n2)cc1`, the “activation” value is inactive: -9.32%.

For the compound `Oc1ccccc1-c1nnco1`, the “activation” value is inactive: -11.2%.

For `Cc1cc(C)c2c(=O)c3c(oc2c1)C(=O)N(Cc1ccco1)C3c1ccc(F)cc1` (stereo not drawn), the “activation” value is inactive: -7.66%.

In the case of `CCN(CC)c1cc(C)c2cc(NC(=O)/C=C/c3ccccc3OC(C)C)ccc2n1`, the “activation” value was inactive: -15.2%.

Take `Cc1ccc(Oc2nc3ccccn3c(=O)c2/C=C(\C#N)c2nc3ccccc3s2)c(C)c1`: the “activation” value is inactive: -11.8%.

On to `CCN(CC)c1ccc(NS(=O)(=O)c2ccc(-c3coc(C)n3)cc2)c(C)c1`, for which the “activation” value is inactive: -38.1%.

Consider `Cc1ccc(CC(=O)Nc2c(C(=O)N3CCN(c4ccccc4)CC3)oc3ccccc23)cc1`, for which the “activation” value is inactive: -16%.

Regarding `Cc1cc(N2CCC(C(=O)Nc3ccc(Cl)cc3)CC2)n2nc(C)c(-c3ccc(Cl)cc3)c2n1`, the “activation” value is inactive: -3.76%.

Consider `O=C(O)CSc1nnc(-c2ccc(O)cc2)o1`, for which the “activation” value was inactive: 4.1%.

As for `CCOC(=O)c1noc2nc(C)n(CC(=O)Nc3ccc(OC)c(Cl)c3)c(=O)c12`, the “activation” value was inactive: -8.06%.

For `CCCCN(CC)CCNC(=O)C1CCN(c2nnc(C)c3c(C)n(-c4ccc(C)cc4)nc23)CC1`, the “activation” value is inactive: -3.59%.

Turning to `CCOC(=O)CSc1nnc2n(-c3ccccc3)c(=O)c3c4c(sc3n12)COC(C(C)C)C4` (stereo not drawn), the “activation” value is inactive: -17.9%.
